Test results as given in PMC4336329 (PLoS ONE, 2015).
Hit rate of the full screen: of about 310,000 compounds, about 14,000 (4.5%) showed an effect of 50% or more. Effects have a minus sign here. The list shows a part of the results.

molecular target: human ether-à-go-go-related gene (hERG) potassium channel (human, UniProt Q12809); assay: primary screen, population patch clamp on CHO cells stably expressing hERG
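Further: peak tail current of the secondary pulse compared with the same well before compound.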

Sequence of human ether-à-go-go-related gene (hERG) potassium channel (Q12809 whole entry, looked up): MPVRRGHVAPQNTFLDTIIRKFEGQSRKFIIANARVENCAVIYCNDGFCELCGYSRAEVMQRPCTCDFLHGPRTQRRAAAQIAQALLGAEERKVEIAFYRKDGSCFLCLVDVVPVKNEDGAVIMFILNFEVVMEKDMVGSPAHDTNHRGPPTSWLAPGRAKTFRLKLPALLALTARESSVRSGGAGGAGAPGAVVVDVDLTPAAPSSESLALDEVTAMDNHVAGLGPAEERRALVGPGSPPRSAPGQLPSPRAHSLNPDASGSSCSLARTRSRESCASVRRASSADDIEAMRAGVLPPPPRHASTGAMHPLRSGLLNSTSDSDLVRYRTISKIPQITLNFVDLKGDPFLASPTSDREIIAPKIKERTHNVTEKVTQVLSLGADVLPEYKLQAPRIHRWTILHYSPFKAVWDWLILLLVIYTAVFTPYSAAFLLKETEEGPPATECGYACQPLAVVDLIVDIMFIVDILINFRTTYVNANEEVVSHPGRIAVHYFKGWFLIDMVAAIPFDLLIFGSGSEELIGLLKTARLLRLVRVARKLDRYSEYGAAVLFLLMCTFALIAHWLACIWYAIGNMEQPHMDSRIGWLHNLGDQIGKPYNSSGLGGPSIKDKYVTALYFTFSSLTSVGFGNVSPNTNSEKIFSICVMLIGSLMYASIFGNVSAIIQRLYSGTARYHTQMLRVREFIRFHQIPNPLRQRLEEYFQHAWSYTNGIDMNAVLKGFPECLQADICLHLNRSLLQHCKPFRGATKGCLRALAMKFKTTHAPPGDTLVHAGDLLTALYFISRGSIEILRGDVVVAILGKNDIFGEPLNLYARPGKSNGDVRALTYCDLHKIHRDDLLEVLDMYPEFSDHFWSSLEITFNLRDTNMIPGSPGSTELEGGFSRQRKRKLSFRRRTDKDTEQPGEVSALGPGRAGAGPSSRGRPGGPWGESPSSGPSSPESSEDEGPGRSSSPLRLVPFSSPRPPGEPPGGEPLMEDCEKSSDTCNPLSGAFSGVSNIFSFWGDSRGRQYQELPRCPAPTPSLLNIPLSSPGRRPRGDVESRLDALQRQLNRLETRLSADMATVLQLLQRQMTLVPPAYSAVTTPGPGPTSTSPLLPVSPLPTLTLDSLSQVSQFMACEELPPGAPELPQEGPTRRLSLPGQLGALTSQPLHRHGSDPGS

Row | SMILES | hERG current change (%, negative = inhibition) at 10uM [%]
1 | COc1ccc(N=C2SC(C(=O)Nc3ccc(F)cc3)CC(=O)N2C)cc1 (centres unmarked) | 1.3
2 | O=C1CSc2ccc(S(=O)(=O)NCc3ccccc3)cc2N1 | -5.59
3 | Cc1cc(Br)ccc1SCC(=O)OCC(=O)c1c(N)n(C)c(=O)n(C)c1=O | -36.6
4 | COc1ccc2c(c1OC)C(=O)OC2CC(=O)c1ccc2c(c1)OCO2 (centres unmarked) | -1.72
5 | CCOC(=O)c1sc(N2N=C(C)C(N=Nc3cccc(C)c3)C2=O)nc1C (centres unmarked) | -24.2
6 | CN(C(=O)c1ccccc1)C1c2c(ccc3ccccc23)OCC1CO (centres unmarked) | 6.62
7 | O=C(Nc1nnc(-c2ccccc2)o1)C1CCCCC1 | 9.78
8 | O=C(c1ccco1)N1CCN(c2nc(C3CC3)nc3c2nnn3Cc2ccccc2Cl)CC1 | 12.2
9 | COC(=O)Cc1[nH]nc2c1C(C1C=CCCC1)C(C#N)=C(N)O2 (centres unmarked) | -7.32
10 | CCOC(=O)C(C)(C)Oc1ccc(Cl)cc1 | 9.36
11 | O=[N+]([O-])c1ccc(N2N=C(c3ccco3)CC2c2ccccc2)cc1 (centres unmarked) | 6.27
12 | O=C(Nc1cccc(S(=O)(=O)N2CCOCC2)c1)C(c1ccccc1)N1CCCCC1 (centres unmarked) | -37.9
13 | COc1ccc(CC(=O)Nc2cccc(C(=O)O)c2C)cc1 | 11.3
14 | Cc1nc(S/C(=C/c2ccc(-c3ccc(C(=O)O)cc3)o2)C(=O)O)n[nH]1 | -11.4
15 | Cc1cc(NC(=O)Cc2ccccc2[N+](=O)[O-])no1 | 3.29
16 | O=C(Nc1ccccc1C(=O)O)c1ccc(Cl)c(S(=O)(=O)N2CCOCC2)c1 | 8.11
17 | Cn1c(C(C#N)C(=O)Cc2cccc3ccccc23)nc2ccccc21 (centres unmarked) | 5.85
18 | CC(CCc1ccccc1)NC(=O)CNC(=O)c1cccs1 (centres unmarked) | -5.72
19 | O=S(=O)(NCc1ccncc1)c1ccc(Br)s1 | 0.699
20 | N#C/C(=C\c1ccc(Cl)c([N+](=O)[O-])c1)c1ccccn1 | 27
21 | CC(=O)N1N=C(N)SC1c1cccc([N+](=O)[O-])c1 (centres unmarked) | -6.38
22 | COc1ccc([N+](=O)[O-])cc1NC(=O)c1ccc(N(Cc2ccccc2Cl)S(C)(=O)=O)cc1 | -10.2

Row | SMILES | hERG current change (%, negative = inhibition) at 10uM [%]
23 | S=c1[nH]nc(-c2cc(-c3ccccc3)n[nH]2)n1/N=C/c1c(Cl)cccc1Cl | 28.2
24 | COc1ccc(CNc2nc(-c3cccnc3)nn2C(=O)c2cccs2)cc1 | 1.11
25 | COc1ccc(Cl)cc1NC(=O)Cn1c(NCCO)nc2ccccc21 | 21.4
26 | O=C(NCc1cccnc1)/C(=C/c1ccc(-c2cccc(Cl)c2)o1)S(=O)(=O)c1ccccc1 | -26.2
27 | O=C(NCc1ccc2c(c1)OCO2)C1CC(=O)N(CCc2ccccc2)C1 (centres unmarked) | 3.54
28 | COc1ccc(CCC(=O)Nc2ccc(N3CCOCC3)cc2)cc1 | -12.9
29 | CCOc1ccc2nc(SCC(=O)N3c4ccccc4Sc4ccccc43)sc2c1 | 13.6
30 | C=CCn1c(CNC(=O)c2ccco2)nnc1SCC(=O)c1ccc(OC)cc1 | -18.3
31 | CCC(C)NC(=O)N[C@@H](CCSC)C(=O)OC (some centres unmarked) | -0.195
32 | C[C@H](N)c1nnc(SCC(N)=O)o1.Cl | -7.03
33 | C=CCn1c(SCC(=O)c2ccc(OC)cc2)nnc1-c1cc2cccc(OC)c2o1 | 25.8
34 | COc1ccc(NC(=O)CSc2nnc(-c3cccs3)n2Cc2ccco2)cc1OC | -60.6
35 | CC(C(=O)NC(=O)NC1CCCCC1)N1CCN(c2ccccn2)CC1 (centres unmarked) | -15.9
36 | NC(=O)COc1ccc2oc(=O)cc(-c3cc4ccccc4o3)c2c1 | 7.27
37 | CC1CCc2sc(C(=O)NC(C)C3CCCO3)cc2C1 (centres unmarked) | -15.7
38 | CSc1ncc(CN2CCN(CC=C(C)C)C(CCO)C2)cn1 (centres unmarked) | 4.77
39 | C=CCn1c(N)cc(=O)nc1SCC(=O)Nc1ccc(C(=O)OCC)cc1 | 29.7
40 | CC(C)O.COC(=O)Nc1ccc2c(c1)N(C(=O)CCN1CCN3CCCC3C1)c1ccccc1CC2.Cl.O (centres unmarked) | 1.43
41 | CC(=O)NC1C(=O)N=C(SCC(=O)NCc2ccccc2)NC1=O (centres unmarked) | -21.6
42 | N=c1c(C(=O)NC2CCCC2)cc2c(=O)n3ccccc3nc2n1Cc1ccccc1 | -78.6
43 | CC(=O)c1cccc(N(CC(=O)N2CCCC2)S(C)(=O)=O)c1 | 2.47
44 | COc1ccc(C2c3c(n[nH]c3C)CC(C)(O)C2C(C)=O)cc1OC (centres unmarked) | -7.33

Row | SMILES | hERG current change (%, negative = inhibition) at 10uM [%]
45 | CC(C)(C)OC(=O)NCCCCCNC(=O)c1nc[nH]c1C(=O)NCc1ccccc1 | -35.9
46 | COc1cccc(NC(=O)[C@H](Cc2ccccc2)NC(=O)[C@@H]2Cc3ccccc3CN2)c1 | -2.99
47 | COc1ccc(N(CCCN2C(=O)c3cccc4cccc(c34)C2=O)C(=O)c2cccs2)cc1 | 10.9
48 | COc1ccccc1NC(=S)N(CCN1CCCCCC1)Cc1cccs1 | -55.3
49 | O=C(Nc1ccnn1C1CCN(Cc2ccn[nH]2)CC1)c1ccccc1 | -18.2
50 | S=C(NCc1ccccn1)Nc1ccc(Cl)cc1 | 7.71
51 | CCOc1ccc(C(O)c2nccn2Cc2ccccc2)cc1 (centres unmarked) | 7.58
52 | O=C(Nc1cccc(-c2nnc(-c3ccccc3)o2)c1)C1CCCCC1 | 2.83
53 | Cc1cc(N2C(=O)C(O)=C(C(=O)c3ccco3)C2c2cccc(Oc3ccccc3)c2)no1 (centres unmarked) | 22.5
54 | Cc1cc(O)c(-c2cc(C(=O)NCCc3ccc(S(N)(=O)=O)cc3)[nH]n2)cc1C | 15.3
55 | CN(c1ccc(F)cc1)S(=O)(=O)c1ccc(Cl)c(C(=O)Nc2ccncc2)c1 | -6.91
56 | O=C(Nc1ccc(Cl)cc1)c1cnc(-c2ccccc2)nc1-c1ccccc1 | -1.24
57 | CC(=C\c1ccco1)/C=C(\C#N)C(=O)NCCc1c[nH]c2ccccc12 | -4.55
58 | CC(=O)Nc1ccc(S(=O)(=O)N(C)CC(=O)Nc2ccccc2N2CCCC2)cc1 | 1.47
59 | Cc1csc(NC(=O)COc2ccc3c(C)cc(=O)oc3c2)n1 | -1.87
60 | COC(=O)c1sc2ccccc2c1NC(=O)c1coc2ccccc2c1=O | 9.05
61 | O=C(O)C1CC(=O)N(c2ccc(OCc3c(F)cccc3Cl)cc2)C1 (centres unmarked) | 13.1
62 | CC(C)N(Cc1nc(-c2ccccc2)no1)S(=O)(=O)c1ccccc1 | -7.82
63 | CN(Cc1ccco1)S(=O)(=O)c1ccc(CN2C(=O)c3cccnc3C2=O)s1 | -63.4
64 | Cn1c(SCc2n[nH]c(=S)o2)nnc1-c1ccccc1 | 3.69
65 | Cc1cc2c(cc1C)[n+](C)cn2CC(O)COCC1CC=CCC1.[I-] (centres unmarked) | 1.25
66 | O=C1c2ccccc2C(=O)N1CC1=NCCc2ccccc21 | 20

Row | SMILES | hERG current change (%, negative = inhibition) at 10uM [%]
67 | CC(C)C(=O)NC(NC1CCS(=O)(=O)C1)C(Cl)(Cl)Cl (centres unmarked) | 14.8
68 | CCc1ccc(-c2nc(-c3ccncc3)no2)cc1 | -1.8
69 | Cc1cc(C)c(NS(=O)(=O)c2ccc(NC(=O)/C=C/C(=O)O)cc2)c(C)c1 | 2.4
70 | O=C(CNc1ccc(F)cc1)N/N=C1\CCc2ccccc21 | 0.266
71 | O=C(NCc1ccccn1)C1CN(S(=O)(=O)c2ccccc2)CCN1S(=O)(=O)c1ccccc1 (centres unmarked) | 6.49
72 | O=C(NNC(=S)NCc1ccccc1)c1cccnc1 | 10.6
73 | COc1ccccc1C(=O)Nc1nnc(SCC(=O)Nc2ccc3c(c2)oc2ccccc23)s1 | 9.85
74 | COc1ccc(/C=N\NC(=O)c2nn(C)cc2Cl)cc1CN1CCOCC1 | -10.6
75 | O=C(CCS(=O)(=O)c1cccc2nsnc12)N1CCN(c2ccccc2F)CC1 | -30.3
76 | CCC(C(=O)NCc1ccco1)N(C(=O)CNS(=O)(=O)c1ccccc1)C1CCCCC1 (centres unmarked) | -22.1
77 | C#CCOC(=O)c1ccccc1C(=O)n1nnc2ccccc21 | -0.66
78 | CCn1c(CC(=O)Nc2cccc(Cl)c2Cl)nnc1SCCOc1ccc(OC)cc1 | 5.96
79 | COc1cc(C(=O)NCCC(=O)NC(C)CCc2ccccc2)cc(OC)c1OC (centres unmarked) | -9.11
80 | CCOc1ccc(NC(=O)Nc2ccon2)cc1 | 16.7
81 | O=C(Nc1ccc(F)cc1)C1CCN(c2ncnc3c2nc2n3CCCCC2)CC1 | -7.35
82 | COc1ccc(NC(=O)CN2C(=O)C(c3ccccc3)=NC23CCCCCC3)cc1 | -0.13
83 | N#Cc1c(-c2ccccc2)nc(SCC(=O)Nc2nnc(C(F)(F)F)s2)[nH]c1=O | 5.59
84 | CCOc1cc2[nH]c(=S)n(CCN3CCC(C)CC3)c(=O)c2cc1OCC | -51.2
85 | CN(Cc1ccccc1)Cc1nc2c([nH]1)c(=O)[nH]c(=O)n2C | -4.37
86 | CC(C)C1=CC2=CCC3C(C)(C(=O)[O-])CCCC3(C)C2CC1.CC(C12CC3CC(CC(C3)C1)C2)[N+](C)(C)C (centres unmarked) | -1.16
